{"source": "the supplement of paper PMC8728848", "assay_in_all_cases": "glycan array binding signal (z-score within array); higher = stronger binding", "settings_in_all_cases": "glycan notation: IUPAC condensed, linker removed", "key": {"[1]": {"target": "Neu5Ac(a2-3)Gal(b1-3)[Neu5Ac(a2-6)]GalNAc(b1-4)Gal(b1-4)Glc", "outline": "(§1)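 The binding signal is a Z-score computed within each array. Data were drawn from 3228 arrays in the Consortium for Functional Glycomics database, restricted to those with a known protein sequence. Scores were averaged over arrays of the same protein sequence at different concentrations or buffers, and over linkers, and negative values can be taken as non-binding.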"}, "[2]": {"target": "Neu5Ac(a2-3)Gal(b1-3)[Neu5Ac(a2-6)]GlcNAc(b1-3)Gal(b1-4)Glc", "outline": "as §1"}, "[3]": {"target": "Neu5Ac(a2-3)Gal(b1-3)[Neu5Ac(a2-6)]GlcNAc(b1-3)[Fuc(a1-3)[Gal(b1-4)]GlcNAc(b1-6)]Gal(b1-4)Glc", "outline": "as §1"}, "[4]": {"target": "Neu5Ac(a2-3)Gal(b1-3)]Neu5Ac(a2-3)Gal(b1-4)]GlcNAc", "outline": "as §1"}, "[5]": {"target": "Neu5Ac(a2-3)Gal(b1-4)Glc", "outline": "as §1"}, "[6]": {"target": "Neu5Ac(a2-3)Gal(b1-4)GlcNAc", "outline": "as §1"}, "[7]": {"target": "Neu5Ac(a2-3)Gal(b1-4)GlcNAc(b1-2)Man", "outline": "as §1"}, "[8]": {"target": "Neu5Ac(a2-3)Gal(b1-4)GlcNAc(b1-2)Man(a1-3)[GlcNAc(b1-2)Man(b1-4)GlcNAc(b1-2)Man(a1-6)]Man(b1-4)GlcNAc(b1-4)GlcNAc", "outline": "as §1"}, "[9]": {"target": "Neu5Ac(a2-3)Gal(b1-4)GlcNAc(b1-2)Man(a1-3)[GlcNAc(b1-4)][Neu5Ac(a2-3)Gal(b1-4)GlcNAc(b1-2)Man(a1-6)]Man(b1-4)GlcNAc(b1-4)GlcNAc", "outline": "as §1"}, "[10]": {"target": "Neu5Ac(a2-3)Gal(b1-4)GlcNAc(b1-2)Man(a1-3)[Neu5Ac(a2-3)Gal(b1-4)GlcNAc(b1-2)Man(a1-6)]Man(b1-4)GlcNAc(b1-4)GlcNAc", "outline": "as §1"}, "[11]": {"target": "Neu5Ac(a2-3)Gal(b1-4)GlcNAc(b1-2)Man(a1-3)[Neu5Ac(a2-3)Gal(b1-4)GlcNAc(b1-2)Man(a1-6)]Man(b1-4)GlcNAc(b1-4)[Fuc(a1-6)]GlcNAc", "outline": "as §1"}, "[12]": {"target": "Neu5Ac(a2-3)Gal(b1-4)GlcNAc(b1-2)Man(a1-3)[Neu5Ac(a2-6)Gal(b1-4)GlcNAc(b1-2)Man(a1-6)]Man(b1-4)GlcNAc(b1-4)GlcNAc", "outline": "as §1"}, "[13]": {"target": "Neu5Ac(a2-3)Gal(b1-4)GlcNAc(b1-2)[Neu5Ac(a2-3)Gal(b1-4)GlcNAc(b1-4)]Man(a1-3)[GlcNAc(b1-4)][Neu5Ac(a2-3)Gal(b1-4)GlcNAc(b1-2)[Neu5Ac(a2-3)Gal(b1-4)GlcNAc(b1-6)]Man(a1-6)]Man(b1-4)GlcNAc(b1-4)GlcNAc", "outline": "as §1"}, "[14]": {"target": "Neu5Ac(a2-3)Gal(b1-4)GlcNAc(b1-2)[Neu5Ac(a2-3)Gal(b1-4)GlcNAc(b1-4)]Man(a1-3)[GlcNAc(b1-4)][Neu5Ac(a2-3)Gal(b1-4)GlcNAc(b1-4)Man(a1-6)]Man(b1-4)GlcNAc(b1-4)GlcNAc", "outline": "as §1"}, "[15]": {"target": "Neu5Ac(a2-3)Gal(b1-4)GlcNAc(b1-2)[Neu5Ac(a2-3)Gal(b1-4)GlcNAc(b1-6)]Man(a1-6)[Neu5Ac(a2-3)Gal(b1-4)GlcNAc(b1-2)Man(a1-3)]Man(b1-4)GlcNAc(b1-4)GlcNAc", "outline": "as §1"}, "[16]": {"target": "Neu5Ac(a2-3)Gal(b1-4)GlcNAc(b1-2)[Neu5Ac(a2-3)Gal(b1-4)GlcNAc(b1-6)]Man(a1-6)[Neu5Ac(a2-3)Gal(b1-4)GlcNAc(b1-2)Man(a1-3)][GlcNAc(b1-4)]Man(b1-4)GlcNAc(b1-4)GlcNAc", "outline": "as §1"}, "[17]": {"target": "Neu5Ac(a2-3)Gal(b1-4)GlcNAc(b1-3)Gal", "outline": "as §1"}, "[18]": {"target": "Neu5Ac(a2-3)Gal(b1-4)GlcNAc(b1-3)Gal(b1-3)GlcNAc", "outline": "as §1"}, "[19]": {"target": "Neu5Ac(a2-3)Gal(b1-4)GlcNAc(b1-3)Gal(b1-4)Glc", "outline": "as §1"}, "[20]": {"target": "Neu5Ac(a2-3)Gal(b1-4)GlcNAc(b1-3)Gal(b1-4)GlcNAc", "outline": "as §1"}, "[21]": {"target": "Neu5Ac(a2-3)Gal(b1-4)GlcNAc(b1-3)Gal(b1-4)GlcNAc(b1-2)Man(a1-3)[Neu5Ac(a2-3)Gal(b1-4)GlcNAc(b1-3)Gal(b1-4)GlcNAc(b1-2)Man(a1-6)]Man(b1-4)GlcNAc(b1-4)GlcNAc", "outline": "as §1"}, "[22]": {"target": "Neu5Ac(a2-3)Gal(b1-4)GlcNAc(b1-3)Gal(b1-4)GlcNAc(b1-3)Gal(b1-4)GlcNAc", "outline": "as §1"}, "[23]": {"target": "Neu5Ac(a2-3)Gal(b1-4)GlcNAc(b1-3)Gal(b1-4)GlcNAc(b1-3)Gal(b1-4)GlcNAc(b1-2)Man(a1-3)[Neu5Ac(a2-3)Gal(b1-4)GlcNAc(b1-3)Gal(b1-4)GlcNAc(b1-3)Gal(b1-4)GlcNAc(b1-2)Man(a1-6)]GalNAc", "outline": "as §1"}, "[24]": {"target": "Neu5Ac(a2-3)Gal(b1-4)GlcNAc(b1-3)Gal(b1-4)GlcNAc(b1-3)GalNAc", "outline": "as §1"}, "[25]": {"target": "Neu5Ac(a2-3)Gal(b1-4)GlcNAc(b1-3)Gal(b1-4)GlcNAc(b1-3)[Neu5Ac(a2-3)Gal(b1-4)GlcNAc(b1-3)Gal(b1-4)GlcNAc(b1-6)]GalNAc", "outline": "as §1"}, "[26]": {"target": "Neu5Ac(a2-3)Gal(b1-4)GlcNAc(b1-3)Gal(b1-4)GlcNAc(b1-6)[Gal(b1-3)]GalNAc", "outline": "as §1"}, "[27]": {"target": "Neu5Ac(a2-3)Gal(b1-4)GlcNAc(b1-3)Gal(b1-4)[Fuc(a1-3)]GlcNAc", "outline": "as §1"}, "[28]": {"target": "Neu5Ac(a2-3)Gal(b1-4)GlcNAc(b1-3)GalNAc", "outline": "as §1"}, "[29]": {"target": "Neu5Ac(a2-3)Gal(b1-4)GlcNAc(b1-3)[Neu5Ac(a2-3)Gal(b1-4)GlcNAc(b1-6)]GalNAc", "outline": "as §1"}, "[30]": {"target": "Neu5Ac(a2-3)Gal(b1-4)GlcNAc(b1-6)GalNAc", "outline": "as §1"}, "[31]": {"target": "Neu5Ac(a2-3)Gal(b1-4)GlcNAc(b1-6)GalNAc(a1-3)Gal(b1-4)Glc", "outline": "as §1"}, "[32]": {"target": "Neu5Ac(a2-3)Gal(b1-4)GlcNAc(b1-6)[Gal(b1-3)]GalNAc", "outline": "as §1"}, "[33]": {"target": "Neu5Ac(a2-3)Gal(b1-4)GlcNAc(b1-6)[Neu5Ac(a2-3)Gal(b1-3)]GalNAc", "outline": "as §1"}, "[34]": {"target": "Neu5Ac(a2-3)Gal(b1-4)GlcNAc6S", "outline": "as §1"}, "[35]": {"target": "Neu5Ac(a2-3)Gal(b1-4)GlcNAc6S(b1-3)Gal6S(b1-3)GlcNAc6S", "outline": "as §1"}, "[36]": {"target": "Neu5Ac(a2-3)Gal(b1-4)[3dFuc(a1-3)]GlcNAc(b1-3)Gal", "outline": "as §1"}, "[37]": {"target": "Neu5Ac(a2-3)Gal(b1-4)[4dFuc(a1-3)]GlcNAc(b1-3)Gal", "outline": "as §1"}}, "note": "The list shows a part of the results.", "data": [{"binder": "PNA (Arachis hypogaea), P02872 (protein) MKPFCVFLTFFLLLAASSKKVDSAETVSFNFNSFSEGNPAINFQGDVTVLSNGNIQLTNLNKVNSVGRVLYAMPVRIWSSATGNVASFLTSFSFEMKDIKDYDPADGIIFFIAPEDTQIPAGSIGGGTLGVSDTKGAGHFVGVEFDTYSNSEYNDPPTDHVGIDVNSVDSVKTVPWNSVSGAVVKVTVIYDSSTKTLSVAVTNDNGDITTIAQVVDLKAKLPERVKFGFSASGSLGGRQIHLIRSWSFTSTLITTTRRSIDNNEKKIMNMASA", "values": [{"measurement": "glycan array binding signal (z-score)", "setting": "[1]", "result": -0.195}, {"measurement": "glycan array binding signal (z-score)", "setting": "[2]", "result": -0.195}, {"measurement": "glycan array binding signal (z-score)", "setting": "[3]", "result": -0.23}, {"measurement": "glycan array binding signal (z-score)", "setting": "[4]", "result": -0.174}, {"measurement": "glycan array binding signal (z-score)", "setting": "[5]", "result": -0.178}, {"measurement": "glycan array binding signal (z-score)", "setting": "[6]", "result": -0.183}, {"measurement": "glycan array binding signal (z-score)", "setting": "[7]", "result": -0.181}, {"measurement": "glycan array binding signal (z-score)", "setting": "[8]", "result": -0.14}, {"measurement": "glycan array binding signal (z-score)", "setting": "[9]", "result": -0.379}, {"measurement": "glycan array binding signal (z-score)", "setting": "[10]", "result": -0.148}, {"measurement": "glycan array binding signal (z-score)", "setting": "[11]", "result": -0.306}, {"measurement": "glycan array binding signal (z-score)", "setting": "[12]", "result": -0.17}, {"measurement": "glycan array binding signal (z-score)", "setting": "[13]", "result": -0.366}, {"measurement": "glycan array binding signal (z-score)", "setting": "[14]", "result": -0.266}, {"measurement": "glycan array binding signal (z-score)", "setting": "[15]", "result": -0.349}, {"measurement": "glycan array binding signal (z-score)", "setting": "[16]", "result": -0.34}, {"measurement": "glycan array binding signal (z-score)", "setting": "[17]", "result": -0.289}, {"measurement": "glycan array binding signal (z-score)", "setting": "[18]", "result": -0.104}, {"measurement": "glycan array binding signal (z-score)", "setting": "[19]", "result": -0.195}, {"measurement": "glycan array binding signal (z-score)", "setting": "[20]", "result": -0.171}, {"measurement": "glycan array binding signal (z-score)", "setting": "[21]", "result": 0.479}, {"measurement": "glycan array binding signal (z-score)", "setting": "[22]", "result": -0.166}, {"measurement": "glycan array binding signal (z-score)", "setting": "[23]", "result": 0.982}, {"measurement": "glycan array binding signal (z-score)", "setting": "[24]", "result": -0.161}, {"measurement": "glycan array binding signal (z-score)", "setting": "[25]", "result": -0.088}, {"measurement": "glycan array binding signal (z-score)", "setting": "[26]", "result": 1.43}, {"measurement": "glycan array binding signal (z-score)", "setting": "[27]", "result": -0.217}, {"measurement": "glycan array binding signal (z-score)", "setting": "[28]", "result": -0.182}, {"measurement": "glycan array binding signal (z-score)", "setting": "[29]", "result": -0.1}, {"measurement": "glycan array binding signal (z-score)", "setting": "[30]", "result": -0.257}, {"measurement": "glycan array binding signal (z-score)", "setting": "[31]", "result": -0.195}, {"measurement": "glycan array binding signal (z-score)", "setting": "[32]", "result": 0.962}, {"measurement": "glycan array binding signal (z-score)", "setting": "[33]", "result": -0.177}, {"measurement": "glycan array binding signal (z-score)", "setting": "[34]", "result": -0.264}, {"measurement": "glycan array binding signal (z-score)", "setting": "[35]", "result": -0.195}, {"measurement": "glycan array binding signal (z-score)", "setting": "[36]", "result": -0.195}, {"measurement": "glycan array binding signal (z-score)", "setting": "[37]", "result": -0.195}]}]}
